Data from PubChem BioAssay (NCATS).
Values joined by “and” are separate entries in the source; they are usually repeats but may differ in a detail not shown here. Equal values may be shown once. Inconclusive means that the source gave no clear call. Such entries were picked first, then a sample of the others. Active and inactive are the calls of the source. Calls follow the shape of the dose curve; as a rule, active = well fitted curve in either direction with a large enough effect (not every such curve was filed as active); inconclusive = small, poorly fitted or top-dose-only effect, or another doubt; inactive = flat fitted curve, though single readings scatter.

test: NFAT Signaling Pathway (AID 444); settings: Jurkat NFAT-bla M1, carbachol, beta-lactamase ratio, 5 h; at 17.2 µM (top of the series);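 also: carbachol stimulus at about its EC50 of 1 µM final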
Procedure, shortened: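 Jurkat cells with NFAT-driven β-lactamase reporter and co-expressed M1 receptor, stimulated with carbachol (final 1 uM, ~EC50), compound titration, 5 h at 37 °C. CCF4 loaded 1 h at RT; 460/530 nm ratio gave %activity and AC50.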
% is scaled to controls: 0 for no effect and ±100 for the full control effect.

| SMILES | activity change, negative = inhibition |
| --- | --- |
| COc1cc2nc(N3CCN(C(=O)C4CCCO4)CC3)nc(N)c2cc1OC (stereo not given) | inconclusive: -30.2% [inhibitor] |
| CN1CCN(C2=Nc3cc(Cl)ccc3Nc3ccccc32)CC1 | inconclusive: -42% [inhibitor] and inconclusive: -69.5% [inhibitor] |
| Cc1c(OCC(F)(F)F)ccnc1CS(=O)c1nc2ccccc2[nH]1 (stereo not given) | inactive: -20.4% and inactive: -11.1% |
| OC(CCN1CCCCC1)(c1ccccc1)c1ccccc1 | active: -42.4% and active: -77.8% |
| O=C(O)c1ccccc1Nc1cccc(C(F)(F)F)c1 | inconclusive: -34.4% [inhibitor] |
| COc1ccc2c3c1OC1C[C@@H](O)C=C[C@@]31CCN(C)C2 (stereo not given in full) | inactive: 1.6% |
| CCCCc1ccc2nc(NC(=O)OC)[nH]c2c1 | inconclusive: -30.2% [inhibitor] |
| COC(=O)Nc1nc2ccc(Sc3ccccc3)cc2[nH]1 | inconclusive: -66% [inhibitor] |
| CCCSc1ccc2nc(NC(=O)OC)[nH]c2c1 | inconclusive: -30.7% [inhibitor] and inconclusive: -63.8% [inhibitor] |
| CC(NCCC(c1ccccc1)c1ccccc1)c1ccccc1 (stereo not given) | inconclusive: -39.1% [inhibitor] |
| CN1[C@@H](CC(=O)c2ccccc2)CCC[C@H]1C[C@H](O)c1ccccc1 | inconclusive: -58.7% [inhibitor] |
| O=C(O)Cc1ccc(-c2ccccc2)cc1 | inactive: -2.29% and inactive: -12.1% |
| CC(C)NCC(O)COc1ccc(CCOCC2CC2)cc1 (stereo not given) | inconclusive: -4% [inhibitor] |
| CCOc1ccc2nc(S(N)(=O)=O)sc2c1 | inconclusive: -35.2% [inhibitor] |
| Cc1cc2cc3c(C)cc(=O)oc3c(C)c2o1 | inconclusive: 39.8% [inhibitor] |
| O=C(CCCN1CCC(O)(c2ccc(Cl)cc2)CC1)c1ccc(F)cc1 | inconclusive: -32.8% [inhibitor] and inconclusive: -46.9% [inhibitor] |
| CC1=C(CC(=O)O)c2cc(F)ccc2/C1=C\c1ccc(S(C)=O)cc1 (stereo not given) | inconclusive: 16.9% [inhibitor] |
| O=c1[nH]c2ccccc2n1CCCN1CCN(C(c2ccccc2)c2ccccc2)CC1 | inconclusive: -71.1% [inhibitor] |
| Oc1ccc(/C=C/c2cc(O)cc(O)c2)cc1 | inconclusive: -35.8% [inhibitor] |

same assay, conditions: Jurkat NFAT-bla M1, carbachol, beta-lactamase ratio, 5 h; at 38 µM (top of the series)

| SMILES | activity change, negative = inhibition |
| --- | --- |
| CN1CCN(C2=Nc3cc(Cl)ccc3Nc3ccccc32)CC1 | active: -49.7% |
| Cc1c(OCC(F)(F)F)ccnc1CS(=O)c1nc2ccccc2[nH]1 (stereo not given) | inactive: 0.241% |
| NC[C@@H]1O[C@H](C23CC4CC(CC(C4)C2)C3)Cc2c1ccc(O)c2O | inconclusive: 36.9% [activator] |
| O=c1[nH]cc(F)c(=O)[nH]1 | inactive: 18.8% |
| NC(=O)C(=O)O | inactive: 5.77% |
| NO | inactive: -5.23% |
| Nc1c(S(=O)(=O)O)cc(Nc2ccc(Nc3nc(Cl)nc(Nc4ccc(S(=O)(=O)O)cc4)n3)c(S(=O)(=O)O)c2)c2c1C(=O)c1ccccc1C2=O | inconclusive: 13.3% [inhibitor] |
| O=Nc1ccc2oc(=O)ccc2c1 | inconclusive: -107% [inhibitor] |
| C[N+](C)(C)CC(=O)O | inactive: -4.41% |
| O=c1[nH]c2ccccc2n1CCCN1CCN(C(c2ccccc2)c2ccccc2)CC1 | inconclusive: -65.4% [inhibitor] |
| CN=c1nc(-c2ccccc2)n(-c2ccccc2)s1 | inconclusive: -104% [inhibitor] |

test: Stat Signaling Pathway (AID 446); settings: ME-180 SIE beta-lactamase reporter, IL-6 stimulated, 5 h; at 38 µM (top of the series);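 also: ME-180 cervical cancer cells given 40 pM IL-6 alongside compound; SIE-controlled beta-lactamase reporter measured as 460/530 nm FRET emission ratio; top concentration of the series differs between compounds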
Procedure, shortened: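 ME-180 SIE-bla cells; overnight plating; cpd + IL-6 40 pM, 5 h, 37 C; LiveBLAzer 2.5 h RT; 460/530 nm emission ratio. Normalized to 300 pM IL-6 and 125 nM JAK inhibitor controls.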

| SMILES | activity, negative = inhibition |
| --- | --- |
| CC(=O)NCCc1c[nH]c2ccc(O)cc12 | inactive: -51.8% |
| Cc1ccc(C(=O)Nc2ccc(S(=O)(=O)O)c3cc(S(=O)(=O)O)cc(S(=O)(=O)O)c23)cc1NC(=O)c1cccc(NC(=O)Nc2cccc(C(=O)Nc3cc(C(=O)Nc4ccc(S(=O)(=O)O)c5cc(S(=O)(=O)O)cc(S(=O)(=O)O)c45)ccc3C)c2)c1 | inconclusive: -80.7% [inhibitor] |
| NCCCS(=O)(=O)O | inactive: -2.17% |
| C#CCN(C)Cc1ccccc1 | inconclusive: -35.5% [inhibitor] |
| O=Nc1ccc2oc(=O)ccc2c1 | inconclusive: -46.5% [inhibitor] |
